55 compounds from publication PMC4336329 (PLoS ONE, 2015) can be followed below.

Hit rate of the full screen: of about 310,000 compounds, about 14,000 (4.5%) showed an effect of 50% or more. The effect is printed as a negative number. Some of the results follow.
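Also: peak tail current of the secondary pulse compared with the same well before compound.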

Chain of human ether-à-go-go-related gene (hERG) potassium channel (Q12809 whole entry, looked up): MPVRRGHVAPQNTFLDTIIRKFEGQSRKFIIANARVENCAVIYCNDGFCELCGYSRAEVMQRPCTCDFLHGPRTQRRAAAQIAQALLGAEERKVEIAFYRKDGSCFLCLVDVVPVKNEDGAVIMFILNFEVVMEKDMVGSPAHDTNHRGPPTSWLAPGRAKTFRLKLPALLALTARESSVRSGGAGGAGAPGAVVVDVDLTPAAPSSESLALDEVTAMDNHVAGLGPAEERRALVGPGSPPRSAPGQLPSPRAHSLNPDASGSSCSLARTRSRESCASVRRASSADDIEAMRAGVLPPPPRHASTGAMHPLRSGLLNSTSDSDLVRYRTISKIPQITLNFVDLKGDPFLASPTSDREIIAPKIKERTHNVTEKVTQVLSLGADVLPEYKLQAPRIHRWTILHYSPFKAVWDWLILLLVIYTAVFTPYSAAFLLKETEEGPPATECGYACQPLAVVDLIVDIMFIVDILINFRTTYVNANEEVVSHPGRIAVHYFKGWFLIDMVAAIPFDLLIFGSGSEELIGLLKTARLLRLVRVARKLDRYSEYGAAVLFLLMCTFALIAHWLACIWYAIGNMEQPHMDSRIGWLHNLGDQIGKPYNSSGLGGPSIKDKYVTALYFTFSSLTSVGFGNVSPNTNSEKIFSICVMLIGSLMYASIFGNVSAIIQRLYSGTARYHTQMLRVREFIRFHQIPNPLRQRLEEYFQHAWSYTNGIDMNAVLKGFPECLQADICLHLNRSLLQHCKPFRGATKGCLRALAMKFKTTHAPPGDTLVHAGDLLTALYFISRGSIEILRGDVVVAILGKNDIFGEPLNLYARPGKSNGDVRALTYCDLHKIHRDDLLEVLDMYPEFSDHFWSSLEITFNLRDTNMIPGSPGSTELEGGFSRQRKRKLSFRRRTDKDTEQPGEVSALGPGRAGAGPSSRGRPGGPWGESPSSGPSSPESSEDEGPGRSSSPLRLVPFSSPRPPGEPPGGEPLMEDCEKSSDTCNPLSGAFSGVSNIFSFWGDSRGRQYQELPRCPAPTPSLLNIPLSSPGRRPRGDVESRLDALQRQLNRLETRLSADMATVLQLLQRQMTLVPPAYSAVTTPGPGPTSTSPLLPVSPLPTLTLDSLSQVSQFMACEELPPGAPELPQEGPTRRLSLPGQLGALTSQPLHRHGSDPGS

This assay concerns the target human ether-à-go-go-related gene (hERG) potassium channel (human, UniProt Q12809). The assay can be described thus: primary screen, population patch clamp on CHO cells stably expressing hERG.
In the case of `COc1cccc(/C=N/c2nc3ccccc3[nH]2)c1O`, the “hERG current change (%, negative = inhibition) at 10uM” value worked out at 3.14%.

As for `O=C(COc1coc(CN2CCN(c3ccccc3F)CC2)cc1=O)NC1CCCC1`, the “hERG current change (%, negative = inhibition) at 10uM” value is reported as -9.99%.

Turning to `NS(=O)(=O)c1ccc(NC(=O)/C(=C/c2ccncc2)NC(=O)c2ccccc2)cc1`, the “hERG current change (%, negative = inhibition) at 10uM” value is 21.9%.

As to `COC(=O)CCCC(=O)NC(C)c1cnn(-c2ccccc2C)c1C` (stereo not shown), the “hERG current change (%, negative = inhibition) at 10uM” value was -4.28%.

For `CC(=O)c1ccc(OC(C)C(=O)NC2CCCCC2C)cc1` (stereo not shown), the “hERG current change (%, negative = inhibition) at 10uM” value was determined as 2.43%.

With `C=CCCC(=O)NC1CC(C)(C)Cc2c1cnn2-c1ccc(OC)cc1` (stereo not shown), the “hERG current change (%, negative = inhibition) at 10uM” value was -46%.

As to `CC(C)(C)c1nc2scc(-c3ccc(Cl)cc3)c2c(=O)o1`, the “hERG current change (%, negative = inhibition) at 10uM” value amounted to 4.57%.

Regarding `O=C(Cn1cnnn1)Nc1cccc(S(=O)(=O)N2CCCCC2)c1`, the “hERG current change (%, negative = inhibition) at 10uM” value was found to be 18.2%.

For the compound `O=c1oc2ccccc2cc1-c1csc(Cc2nc(-c3ccc(Cl)cc3)cs2)n1`, the “hERG current change (%, negative = inhibition) at 10uM” value was found to be 19.4%.

On to `Cc1cnc(NC(=O)CSc2nnc(-c3ccccc3)o2)s1`, for which the “hERG current change (%, negative = inhibition) at 10uM” value is listed as -0.589%.

Turning to `CC(C)CN(C(=O)CN1CCOCC1)c1c(N)n(CC(C)C)c(=O)[nH]c1=O`, the “hERG current change (%, negative = inhibition) at 10uM” value is 13.7%.

Take `COc1cccc(C2CC(c3ccc(C)cc3)Nc3nc(N)nn32)c1` (stereo not shown): the “hERG current change (%, negative = inhibition) at 10uM” value is on record as 1.95%.

In the case of `Cc1nc2ccccc2c2c1C(=O)N(Cc1cccnc1)C2=O`, the “hERG current change (%, negative = inhibition) at 10uM” value was -17.5%.

In the case of `COc1cccc(/C=N/NC(=O)c2ccccc2)c1OS(=O)(=O)c1ccccc1`, the “hERG current change (%, negative = inhibition) at 10uM” value is reported as 6.22%.

For `Cc1ccc(S(=O)(=O)N2[C@@H](c3ccc(F)cc3)C(C(=O)O)=CC[C@H]2c2cccc(Cl)c2)cc1`, the “hERG current change (%, negative = inhibition) at 10uM” value turned out to be 0.604%.

In the case of `COc1ccc(C(=O)NNC(=O)C23CC4CC(CC(C4)C2)C3)cc1OC`, the “hERG current change (%, negative = inhibition) at 10uM” value came to 0.327%.

Regarding `CCc1nc2cc(CC(=O)O)ccc2o1`, the “hERG current change (%, negative = inhibition) at 10uM” value was found to be 8.35%.

Take `CCOC(=O)c1ccc(N2C(=O)C3C(/C=C/c4ccccc4)OC4(C(=O)c5ccccc5C4=O)C3C2=O)cc1` (stereo not shown): the “hERG current change (%, negative = inhibition) at 10uM” value turned out to be 23.8%.

`Cc1cc2n(c(=O)c1C#N)CCCN2c1cccc(Cl)c1`: the “hERG current change (%, negative = inhibition) at 10uM” value is on record as -65%.

Take `O=C(NC1CC1)C1CCCN1S(=O)(=O)c1ccc2ccccc2c1` (stereo not shown): the “hERG current change (%, negative = inhibition) at 10uM” value is recorded as 0.266%.

As for `COc1cc2c(cc1NC(=O)COC(=O)/C=C/c1ccc([N+](=O)[O-])cc1)oc1ccccc12`, the “hERG current change (%, negative = inhibition) at 10uM” value is listed as -3.51%.

As to `COc1cc(CN2CCCCCC2)cc(OC)c1OC.O=C(O)C(=O)O`, the “hERG current change (%, negative = inhibition) at 10uM” value is reported as 13.8%.

As to `CCN(CC)c1ccc(/C=N/NC(=O)c2ccc3nc[nH]c3c2)c(O)c1`, the “hERG current change (%, negative = inhibition) at 10uM” value is on record as 21.4%.

Consider `S=c1nc2c(n[nH]1)c1ccccc1n2CCc1ccccc1`, for which the “hERG current change (%, negative = inhibition) at 10uM” value is recorded as 17.9%.

On to `CCOc1ccc(-n2ccnc2SCC(=O)NCc2ccc3c(c2)OCO3)cc1`, for which the “hERG current change (%, negative = inhibition) at 10uM” value is recorded as -31.6%.

Turning to `O=C(OCn1ncc(Br)c(Br)c1=O)c1ccc(F)cc1`, the “hERG current change (%, negative = inhibition) at 10uM” value is -51.4%.

Take `CCN(CC)C(=O)CSc1nc(-c2cccs2)cc(-c2cccs2)c1C#N`: the “hERG current change (%, negative = inhibition) at 10uM” value is on record as -10.7%.

As for `Cn1c(-c2sc3cc(C(F)(F)F)cnc3c2-c2ccccn2)n[nH]c1=S`, the “hERG current change (%, negative = inhibition) at 10uM” value is on record as 19.2%.

Consider `CCC/C=N/Nc1nnc(Cc2ccccc2)c(=O)[nH]1`, for which the “hERG current change (%, negative = inhibition) at 10uM” value is -11.5%.

For the compound `COc1ccc(S(=O)(=O)Nc2cccc3ccc(O)cc23)cc1`, the “hERG current change (%, negative = inhibition) at 10uM” value is -1.13%.

In the case of `COc1cc(/C=C2\SC(=S)N(CCC(=O)N3CCN(C)CC3)C2=O)cc(OC)c1OC`, the “hERG current change (%, negative = inhibition) at 10uM” value is -35.2%.

Regarding `COc1ccc(NC(=O)CN2CCN(c3ccccn3)CC2)cc1Cl`, the “hERG current change (%, negative = inhibition) at 10uM” value is given as -17.4%.

In the case of `C/C(=N\NS(=O)(=O)c1ccc(C)cc1)c1ccc(C)o1`, the “hERG current change (%, negative = inhibition) at 10uM” value is on record as 4.63%.

`C/C(CC(=O)Nc1ccc(Cl)cc1C(F)(F)F)=N\NC(=O)c1ccccn1`: the “hERG current change (%, negative = inhibition) at 10uM” value was 0.77%.

On to `CC1(C)CC(=O)C(N=Nc2cccc(F)c2C#N)=C(O)C1`, for which the “hERG current change (%, negative = inhibition) at 10uM” value turned out to be 13.2%.

For the compound `COc1ccc(-n2ncc3c(=O)n(CC(=O)NC(C)C)cnc32)cc1`, the “hERG current change (%, negative = inhibition) at 10uM” value is given as 1.54%.

Take `CCOC(=O)Cn1nnc(-c2cccc(OC)c2)n1`: the “hERG current change (%, negative = inhibition) at 10uM” value is 2.68%.

As to `O=C(CSc1nnc(Cc2ccccc2)o1)N1CCCC1`, the “hERG current change (%, negative = inhibition) at 10uM” value was determined as 2.53%.

`COc1ccc(-c2nc3ncccn3c2Nc2ccccc2)cc1`: the “hERG current change (%, negative = inhibition) at 10uM” value is reported as -9.03%.

`COc1cc(C(=S)N2CCCCC2)ccc1OCC(=O)Nc1ccccc1Cl`: the “hERG current change (%, negative = inhibition) at 10uM” value came out at 18.9%.

Regarding `O=C(Cc1ccccc1)NC(=S)Nc1ccc(OC(F)F)cc1`, the “hERG current change (%, negative = inhibition) at 10uM” value is -2.31%.

As for `CCN(CC)S(=O)(=O)c1ccc(C(=O)NCCCn2ccnc2)cc1`, the “hERG current change (%, negative = inhibition) at 10uM” value is 18.2%.

For the compound `COc1ccccc1-n1c(C)c(C(=O)O)c2cc(OC)c3ccccc3c21`, the “hERG current change (%, negative = inhibition) at 10uM” value stood at 12.2%.

As to `O=C(CN1CCOc2ccccc21)NCc1cccs1`, the “hERG current change (%, negative = inhibition) at 10uM” value is given as 8.26%.

Consider `O=C(NCc1ccccn1)c1ccc(NS(=O)(=O)c2cccc([N+](=O)[O-])c2)cc1`, for which the “hERG current change (%, negative = inhibition) at 10uM” value is on record as 11.3%.

For the compound `CCCc1nc2c(sc3nc4c(cc32)COC(C)(C)C4)c(=O)o1`, the “hERG current change (%, negative = inhibition) at 10uM” value is recorded as 69%.

Turning to `CCOC(=O)C(NC(C)=O)C(=O)Nc1ccc(C)cc1C` (stereo not shown), the “hERG current change (%, negative = inhibition) at 10uM” value is recorded as 15.7%.

Consider `O=C(COC(=O)c1ccccc1NS(=O)(=O)c1cccs1)NC1CCCCC1`, for which the “hERG current change (%, negative = inhibition) at 10uM” value is -12.9%.

Take `COc1ccc(CCNC(=O)Cc2ccc(NC3=NC4CS(=O)(=O)CC4S3)cc2)c(OC)c1` (stereo not shown): the “hERG current change (%, negative = inhibition) at 10uM” value was determined as 14.9%.

In the case of `O=C(COC(=O)CNC(=O)c1ccccc1F)Nc1cccc(S(=O)(=O)N2CCCCCC2)c1`, the “hERG current change (%, negative = inhibition) at 10uM” value is -30.4%.

Take `COc1cccc(NC(=O)CSc2nc3ccccc3c(=O)n2CCCC(=O)NCC2CCCO2)c1` (stereo not shown): the “hERG current change (%, negative = inhibition) at 10uM” value is listed as -70.3%.

As to `Cc1nn(C)c(C(=O)Nc2cccc(Nc3ccccc3)c2)c1[N+](=O)[O-]`, the “hERG current change (%, negative = inhibition) at 10uM” value was 1.05%.

In the case of `O=C(Nc1cccc(NC(=O)c2cccc(Cl)c2)c1)c1cccnc1`, the “hERG current change (%, negative = inhibition) at 10uM” value is -16.3%.

On to `CCCC(=O)Nc1cc(C(=O)N(C)CC(OC)OC)ccc1S(=O)(=O)c1ccc(C)cc1`, for which the “hERG current change (%, negative = inhibition) at 10uM” value stood at 4.73%.

With `CCCOC(=O)c1ccc(S(N)(=O)=O)o1`, the “hERG current change (%, negative = inhibition) at 10uM” value was 13.5%.
